{"source": "paper PMC9545476", "about": "“Structure‐guided engineering of key amino acids in UGT85B1 controlling substrate and stereo‐specificity in aromatic cyanogenic glucoside biosynthesis” (The Plant Journal, 2022)", "key": {"PdUGT85A19": {"target": "T1, PdUGT85A19 (Prunus dulcis, UniProt B2XBQ5)", "T1 construct": "gene UGT85A19", "T1 sequence (B2XBQ5 whole entry, looked up)": "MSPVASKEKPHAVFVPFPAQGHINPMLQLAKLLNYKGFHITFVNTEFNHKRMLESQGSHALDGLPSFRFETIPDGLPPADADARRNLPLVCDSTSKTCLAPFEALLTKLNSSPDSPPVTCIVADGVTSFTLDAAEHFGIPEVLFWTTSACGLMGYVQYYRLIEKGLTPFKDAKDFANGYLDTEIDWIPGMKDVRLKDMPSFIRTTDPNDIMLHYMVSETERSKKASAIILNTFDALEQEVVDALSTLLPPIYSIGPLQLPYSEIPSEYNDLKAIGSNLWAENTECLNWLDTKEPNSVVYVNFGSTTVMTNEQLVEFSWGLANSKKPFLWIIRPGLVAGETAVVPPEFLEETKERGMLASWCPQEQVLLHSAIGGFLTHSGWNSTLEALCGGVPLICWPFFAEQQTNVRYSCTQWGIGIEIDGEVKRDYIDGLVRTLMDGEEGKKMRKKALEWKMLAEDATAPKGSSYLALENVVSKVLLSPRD", "conditions": "600 uM UDP-glucose, pH 7.5, 30 C"}, "EcUGT85A59": {"target": "EcUGT85A59 (Eucalyptus cladocalyx, UniProt A0A3G2LJ70)", "conditions": "UDP-glucose"}, "SbUGT85B1 [1]": {"target": "T2, SbUGT85B1 (Sorghum bicolor, UniProt Q9SBL1)", "T2 construct": "gene UGT85B1", "T2 sequence (Q9SBL1 whole entry, looked up)": "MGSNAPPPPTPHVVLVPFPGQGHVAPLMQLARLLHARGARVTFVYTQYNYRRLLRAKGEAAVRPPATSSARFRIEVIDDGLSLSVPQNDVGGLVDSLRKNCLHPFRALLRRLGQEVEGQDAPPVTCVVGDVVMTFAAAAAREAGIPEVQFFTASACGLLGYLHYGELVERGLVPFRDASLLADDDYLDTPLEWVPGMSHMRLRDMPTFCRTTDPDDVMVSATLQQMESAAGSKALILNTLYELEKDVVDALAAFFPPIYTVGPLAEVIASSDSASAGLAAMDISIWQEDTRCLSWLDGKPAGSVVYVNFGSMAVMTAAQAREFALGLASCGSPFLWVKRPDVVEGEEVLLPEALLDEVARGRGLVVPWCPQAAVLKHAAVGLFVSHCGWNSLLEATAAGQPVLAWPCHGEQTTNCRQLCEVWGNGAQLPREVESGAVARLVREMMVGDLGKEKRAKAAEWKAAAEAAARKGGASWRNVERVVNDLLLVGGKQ", "conditions": "600 uM UDP-glucose, pH 7.5, 30 C"}, "SbUGT85B1 [2]": {"target": "T2, SbUGT85B1", "conditions": "with UDP; racemate added to crystals; sugar acceptor site"}, "[3]": {"conditions": "600 uM racemic p-hydroxymandelonitrile, product taxiphyllin"}}, "note": "Like-named read-outs stand apart in the source and are kept apart here.", "data": [{"smiles": "N#C[C@H](O)c1ccc(O)cc1", "note": "(mixture of isomers)", "values": [{"measurement": "LC-MS/MS of glucoside product", "setting": "PdUGT85A19; [3]", "result": "catalyze the formation of taxiphyllin by utilizing (R)‐p‐hydroxymandelonitrile as substrate"}]}, {"smiles": "N#C[C@H](O)c1ccccc1", "note": "(mixture of isomers) [(R)-mandelonitrile]", "values": [{"measurement": "LC-MS/MS of glucoside product", "setting": "EcUGT85A59; racemic mandelonitrile, product prunasin", "result": "EcUGT85A59 displayed a preference for (R)‐mandelonitrile"}, {"measurement": "LC-MS/MS of glucoside product", "setting": "PdUGT85A19; 600 uM racemic mandelonitrile, product prunasin", "result": "as demonstrated by production of prunasin and taxiphyllin"}]}, {"smiles": "N#C[C@H](O)c1ccc(O)cc1", "note": "(mixture of isomers) [(R)-p-hydroxymandelonitrile]", "values": [{"measurement": "LC-MS/MS of glucoside product", "setting": "SbUGT85B1 [1]; [3]", "result": "also able to catalyze the conversion of the (R)‐isomer into taxiphyllin"}, {"measurement": "LC-MS/MS of glucoside product", "setting": "EcUGT85A59; racemic p-hydroxymandelonitrile, product taxiphyllin", "result": "EcUGT85A59 is able to convert p‐hydroxymandelonitrile into taxiphyllin"}]}, {"smiles": "N#C[C@@H](O)c1ccccc1", "note": "(mixture of isomers) [(S)-mandelonitrile]", "values": [{"measurement": "LC-MS/MS of glucoside product", "setting": "SbUGT85B1 [1]; 600 uM racemic mandelonitrile, product sambunigrin", "result": "able to catalyze glucosylation of mandelonitrile mainly resulting in sambunigrin"}]}, {"smiles": "N#C[C@@H](O)c1ccc(O)cc1", "note": "[(S)-p-hydroxymandelonitrile]", "values": [{"measurement": "X-ray crystal structure (1.50 A)", "setting": "SbUGT85B1 [2]", "result": "clearly indicates the bound p‐hydroxymandelonitrile to be in the (S)‐configuration"}]}]}
